Read counts are not given, so values of variants with three or more changes are uncertain.
B1: CPEB3 Ribozyme (parent)
chain: UAACAGGGGGCCACAGCAGAAGCGUUCACGUCGCAGCCCCUGUCAGAUUCUGGUGAAUCUGCGAAUUCUGCUGUAUAUCUC

Variants of: B1
Experiment: self-cleavage, relative activity (ratio to wild type); higher = more cleavage; in vitro, sequencing
In short: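 Libraries of CPEB3 self-cleaving ribozyme mutants came from rounds of error-prone PCR and carried barcodes, which DNA sequencing matched to variants. In vitro transcription used T7 RNA polymerase at 37°C for 5 hours, with a further 15 min in DNase I before EDTA stopped the reaction; the ribozymes cleaved during both steps. The RNA was reverse transcribed with template switching and sequenced on Illumina. Relative activity is the cleaved/total read fraction of a variant divided by that of the unmutated ribozyme, averaged over three batches with at least 5 reads.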
For UAACUGGGGGCCACAGCAGUAGCGUUCACGUCGCAGCCCCUGUCAGAUUCUGGUGAAUCUGCGAAUUCUGCUGUGUAUCUC [A5U A20U A75G], the self-cleavage was 0.16.
UAACUGGGGGCCACAGCAGGAGCGUUCACGCCGCUGCCCCUGUCAGAUUCUGAGGAAUCUGCGUAUUCUGCUGUAUAUCUC [A5U A20G U31C A35U G53A U54G A64U] showed a self-cleavage of 0.18.
With UAACUGGGGGCCACAGCAGCAGCGUUCACGUCGCAGCCCCUGUCAGGUUCUGGUGAAUCUGCGAGUUCUGCUGUAUAACUC [A5U A20C A47G A65G U78A] the self-cleavage was 0.09.
UAACUGGGGGCCACAGCAGUAGCGUUCACGUCGCAGCCCCAGUCAGAUUCUGGUGAAUCUGCGAAUACUGCUGUAUAUCUC [A5U A20U U41A U67A] gave a self-cleavage of 0.32.
Work on UAACUGGGGGCCACAGCAGAAGCGUUCCCGUCGCAGCCCCGGUCAGAUUCUGGUGAAUCUGCGAUUUCUGCUGCAUAUCAC [A5U A28C U41G A65U U74C U80A] yielded a self-cleavage of 0.14.
For UAACUGGGGGCCACAGCAGAUGCGUUCACGUCGCAGCACCCGUCAGAUUCUGGUGAGUCUGCGAAUUCUGCUGUAUAUCUC [A5U A21U C38A U41C A57G], the self-cleavage was 0.28.
For UAACUGGGGGCCACAGCAGGAGCGUUCACGUCGCGGCCCCUUUCAGAUUCUGGUGAAUCUGCGUACUCUGCUGUAUAUCUC [A5U A20G A35G G42U A64U U66C], the self-cleavage was 0.1.
Variant UAACUGGGGGCCACAGCAGAGGCGUUCUCGUCGCGGCCCCUGUCAGAUUCUGGUGAAUCUGCGAAUCCUGCUGUAUAUCUC [A5U A21G A28U A35G U67C] has a self-cleavage of 0.38.
With UAACUGGGGGCCACAGCAGAGGCGUUCACGUCGCAGCCCCUGUCAGAUUCCGGUGAAUCUGCGAAUUCUGCUGUAUAUCUC [A5U A21G U51C] the self-cleavage was 0.78.
Variant UAACUGGGGGCCACAGCAGGAGCGUUCACGUCGCAGCCCAUGUCAGAUUCUGGUGAAUCUGCGGACUCUGCUGUAUAUCUC [A5U A20G C40A A64G U66C] has a self-cleavage of 0.28.
UAACUGGGGGCCACAGCAGAUGCGUUCACGUCGCAGCCCCCGUCAGAUUCUGAUGAAUCUGCGGAUUCUGCCGUAUAUCUC [A5U A21U U41C G53A A64G U72C] showed a self-cleavage of 0.14.
UAACUGGGGGCCACAGCAGUAGCGUUCACGUCGCAGCCCCUGUCAGAAUCUGGUGAAUCUGCGAAUUCUGCUGUAUAUCUC [A5U A20U U48A] showed a self-cleavage of 0.11.
With UAACUGGGGGCCACAGCAGAAGCGUUCGCGUCGCAGCCCCUGUCAGAUUCUGGUGAAUCUGCGAAUUCUGCUGUAUAUAUC [A5U A28G C79A] the self-cleavage was 0.99.
Work on UAACUGGGGGCCACAGCAGAUGCGUUCACGUGGCAGCCCCUGUCAGAUUCUGGUGAAUCUGCGAAUCCUGCUGUAUAUCUC [A5U A21U C32G U67C] yielded a self-cleavage of 0.06.
UAACUGGGGGCCACAGCAGGAGCGUUCACGUCGCAGCCCCUGUCAGAUUCUGGUGAGUCUGCGAAUUCUGCUGUAUAUCUC [A5U A20G A57G] gave a self-cleavage of 0.53.
For UAACUGGGGGCCACAGCAGACGCGUUCACGUCGCAGCCCCUGUCUGAUUCCGCUGAAUCUGCGAAUUCUGCUGUAUAUCUC [A5U A21C A45U U51C G53C], the self-cleavage was 0.24.
Variant UAACUGGGGGCCACAGCAGAGGCGUUCACGUCGCAGCCCCUGUCAGAUUCUGGUGAAUCUGCGAAUUCAGCUGUACAUCUC [A5U A21G U69A U76C] has a self-cleavage of 0.27.
Variant UAACUGGGGGCCACAGCAGUAGCGUUCACGUCGCAGCCCCUGUCAGAUUCUGGAGAAUCUACGAAUUCUGCUGUAUACCUC [A5U A20U U54A G61A U78C] has a self-cleavage of 0.32.
Work on UAACUGGGGGCCACAGCAGAAGCGUUCGCGUCGCAGCCCCUGUCAGAUUCUGGUGAAUCUGCGAAUUCAGCUGUAUAUCUC [A5U A28G U69A] yielded a self-cleavage of 0.31.
Work on UAACUGGGGGCCACAGCAGAAGCGUUCACGUCGCGGCCCCUGUCGGAUUCAGGUGAAUCUGCGAAUUCUGCUGUAUAUCUC [A5U A35G A45G U51A] yielded a self-cleavage of 1.37.
Variant UAACUGGGGGCCACAGCAGUAGCGUUCUCGCCGCAGCCCCUGUCAGAUUCUGGUGAAUCUGCGAACUCUGCUGUAUAUCUC [A5U A20U A28U U31C U66C] has a self-cleavage of 0.25.
UAACUGGGGGCCACAGCAGGAGCUUUCGCGUCGCAGCCCCUGUCAGAUUCUGGUGAAUCUGCGAAUUCCGCUGUAUUUCUC [A5U A20G G24U A28G U69C A77U] showed a self-cleavage of 0.09.
UAACUGGGGGCCACAGCAGAAGCGUUCGCGUCGCAGCCCCAGUCGGAUUCUGGUGAAUCUGCGAAUUCUGCUGUAUAUCUC [A5U A28G U41A A45G] gave a self-cleavage of 0.09.
Work on UAACUGGGGGCCACAGCAGAAGCGUUCGCGACGCAGCCCCUGUCAGAUUCUGGUGAGUCUGCGAAUUCAGCUGCAUAUCUC [A5U A28G U31A A57G U69A U74C] yielded a self-cleavage of 0.11.
UAACUGGGGGCCACAGCAGGAGCGCUCACGCCGCUGCCCCUGUCAGAUUCUGGUGAAUCUGCGAAUUCUGCUGUAUAACUC [A5U A20G U25C U31C A35U U78A] showed a self-cleavage of 0.06.
In the case of UAACUGGGGGCCACAGCAGAGGCGUUCACGUCGCGGCCCCUGACAGAUUCUGGUGAACCUGCGAAUUCAGCUGUAUAUCUC [A5U A21G A35G U43A U58C U69A], the self-cleavage is reported as 0.25.
With UAACUGGGGGCCACAGCAGAAGCGUUCGCGUCGCAGCCACUGUCAGAUUCUGGCGAAUCAGCGAAUUCUGCUGCAUAUCUC [A5U A28G C39A U54C U60A U74C] the self-cleavage was 0.23.
With UAACUGGGGGCCACAGCAGGAGCGUUCACGCCGCAGCCCCUGUCAGGUUCUGGUGAAUCUGCGAAUUCUGCCGUAUAUCAC [A5U A20G U31C A47G U72C U80A] the self-cleavage was 0.96.
With UAACUGGGGGCCACAGCAGAAGCGUUCACGUCGCGGCCCCUGUCGGAUUCUGGUGUAUCUGCGAAUUCUGCUGUAUGUCCC [A5U A35G A45G A56U A77G U80C] the self-cleavage was 1.12.
UAACUGGGGGCCACAGCAGGAGCGUUCACGUCGCAGCCCCUGUCAGAUUCAGGUGAAUCUGCGAAUUCUGCUGUAUAUCUC [A5U A20G U51A] showed a self-cleavage of 0.86.
In the case of UAACUGGGGGCCACAGCAGAAGCGUUCUCGUCGCAGCCCCUGUCAGAUUCCGGUGAAUCUGCGAAUUCAGCUGUAUAUCUC [A5U A28U U51C U69A], the self-cleavage is reported as 0.85.
With UAACUGGGGGCCACAGCAGGGGCGUUCACGUCGCAGCCCCUGUCAGAUUCCGGUGAAUCUGCGAAUUCUGCUGUAUAUCUC [A5U A20G A21G U51C] the self-cleavage was 0.11.
In the case of UAACUGGGGGCCACAGCAGGAGCGCUCACGUCGCAGCCCCUGUCAGAUUCUGGUGGAUCUGCGAAUUCUGCUGUAUACUUC [A5U A20G U25C A56G U78C C79U], the self-cleavage is reported as 0.32.
Work on UAACUGGGGGCCACAGCAGAGGCGUUCACGUCGCAGCCCCUGUCAGAUUCUGGUGAAUCUGCGAAUACUGCUGUAUAUCUC [A5U A21G U67A] yielded a self-cleavage of 0.19.

Source: the RNAGym collection of RNA variant scans (doi:10.1093/nar/gkz1192)
